Laboratory results as given in PubChem BioAssay AID624417 (National Center for Advancing Translational Sciences (NCATS), 2012).
Hit rate of the full screen: of about 410,000 compounds, about 6,400 (1.6%) were called active. The shares of active, inactive and inconclusive entries below differ from those in the screen. Calls follow the shape of the dose curve; as a rule, active = well fitted inhibition curve with a large enough effect; inconclusive = small, poorly fitted or top-dose-only effect; inactive = no such curve, though single readings can be large or run the other way. Potencies of inconclusive entries are left out as doubtful fits.

Molecular target: Glucagon-like peptide 1 receptor (Homo sapiens) (UniProt P43220)
Sequence of UniProt P43220 (P43220 whole entry, looked up): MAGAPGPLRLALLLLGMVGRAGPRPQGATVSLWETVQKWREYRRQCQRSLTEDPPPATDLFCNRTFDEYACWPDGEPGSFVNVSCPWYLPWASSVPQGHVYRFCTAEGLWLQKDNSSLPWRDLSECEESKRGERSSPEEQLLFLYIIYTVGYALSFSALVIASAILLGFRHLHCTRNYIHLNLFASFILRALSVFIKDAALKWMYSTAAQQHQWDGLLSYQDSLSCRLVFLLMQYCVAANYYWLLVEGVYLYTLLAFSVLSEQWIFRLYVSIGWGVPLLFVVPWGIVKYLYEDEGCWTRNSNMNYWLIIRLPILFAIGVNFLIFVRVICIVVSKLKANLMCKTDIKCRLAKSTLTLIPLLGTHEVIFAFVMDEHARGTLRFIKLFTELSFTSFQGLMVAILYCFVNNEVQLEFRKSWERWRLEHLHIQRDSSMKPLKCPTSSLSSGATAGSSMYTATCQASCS
Test: qHTS of GLP-1 Receptor Inverse Agonists (Inhibition Mode); also: nearly all actives have a fitted effect of over 55% in size
Details: HEK293 GLP-1R CRE-luciferase, luminescence, 24 h, GLP-1R form is constitutively active; series mostly up to 38.3 µM
Procedure, shortened: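 Inverse agonism was detected as reduced cAMP-driven luciferase luminescence after 24 h compound treatment. The cells were HEK293 clones expressing constitutively active human GLP-1R with the reporter. Reporter-only and GPR119 cell lines served as counterscreen controls.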
Potency is read from the fitted curve at half-maximal effect; tags tell the direction and shape of the fitted curve.

SMILES | Potency
CC(C)N(C(C)C)S(=O)(=O)c1ccc(N2CCc3ccccc3C2)nc1 | active: 7.94 µM
CCC(=O)Nc1cc2nn(-c3ccc(C)cc3)nc2cc1C | inactive
Cc1ccc(NC(=O)[C@@H](c2ccccc2)N2Cc3ccccc3C2=O)cc1F | active: 10 µM
S=C(NCc1ccco1)Nc1cccc(Cl)c1 | active: 8.91 µM
CCOc1nc(Nc2ccc(Cl)cc2)nc(OCC)n1 | inconclusive [inhibitor, single point]
Cc1ccc(-c2nn(-c3ccccc3)cc2/C=N/NC(=O)CSc2nnc(C)n2-c2ccccc2)cc1 | inconclusive [inhibitor, single point]
O=C(CCCN1CCC(O)(c2ccc(Br)cc2)CC1)c1ccc(F)cc1 | inactive
O=c1cc(CN2CCCCCCC2)c2c(ccc3ccccc32)o1 | inconclusive [inhibitor, single point]
O=C(COC(=O)c1ccccc1)Nc1cccc(S(=O)(=O)NC2=NCCCCC2)c1 | inactive
O=S(=O)(NCC(O)c1ccccc1)c1cc(Cl)sc1Cl (centres undefined) | inconclusive [inhibitor, single point]
C/C(=N/NC(=O)C1CC1(c1ccccc1)c1ccccc1)c1ccco1 (centres undefined) | inconclusive [inhibitor, partial curve, poor fit]
COc1ccc(OC(=O)COc2ccc(C)cc2)cc1 | inactive
COc1ccccc1N1CCN(C(=O)/C=C/c2ccc(C)cc2)CC1 | inconclusive [inhibitor, single point]
Cc1nn(C2CCS(=O)(=O)C2)c2nc(C3CC3)cc(C(=O)Nc3cccc(C#N)c3)c12 (centres undefined) | inconclusive [inhibitor, partial curve, poor fit]
CC1Oc2ccccc2C=C1/C=N/NC(=O)[C@@H](C)NC(=O)OC(C)(C)C (some centres undefined) | inconclusive [inhibitor, single point]
CC(CCc1ccco1)NC(=O)Nc1cccc(F)c1 (centres undefined) | inconclusive [inhibitor, single point]
CC1CCCN(c2ncnc3c2cnn3-c2ccccc2)C1 (centres undefined) | inconclusive [inhibitor, full curve, poor fit]
COc1ccc(/C=N/NS(=O)(=O)c2ccc(C)cc2)cc1OC(=O)c1ccccc1 | inconclusive [inhibitor, single point]
CSc1nc(SCC(=O)NC(c2ccccc2)c2ccccc2)c2c3c(sc2n1)CN(C)CC3 | inactive
Cc1nn(C)c(C)c1C(C)NC(=O)c1cc(COc2ccc(F)c(F)c2)on1 (centres undefined) | inconclusive [inhibitor, single point]
CCC1=NN(C(=O)c2ccccc2[N+](=O)[O-])C(O)(c2ccccc2)C1 (centres undefined) | inconclusive [inhibitor, partial curve, poor fit]
CCc1ccc(C)c(OC(=O)c2cncc(Br)c2)c1 | inactive

SMILES | Potency
CC(=O)Nc1cc(C(=O)Nc2ccc3c(c2)N(C)C(=O)c2ccccc2S3)ccc1C | inconclusive [inhibitor, full curve, poor fit]
COc1ccc(-c2cc(C3CCN(C(=O)OC(C)(C)C)CC3)[nH]n2)cc1 | inconclusive [inhibitor, partial curve, poor fit]
CCc1cccc(C)c1NS(=O)(=O)c1cc(Br)cnc1N | active: 10 µM
C/C=C/c1ccc(OCC(O)CN(C)Cc2ccc(SC)cc2)c(OC)c1 (centres undefined) | inconclusive [inhibitor, single point]
CCCCCCN1C[C@H](n2cc(COC(=O)c3ccccc3)nn2)[C@@H](O)C[C@@H]1c1ccc(C)cc1 | inconclusive [inhibitor, partial curve, poor fit]
CC(NC(=O)c1ccccc1F)c1cccc2ccccc12 (centres undefined) | inconclusive [inhibitor, partial curve, poor fit]
CCOc1ncccc1C(=O)NCc1ccccc1F | inactive
CN(C)c1ccc(CNC(=O)Cn2ccc3cc(S(=O)(=O)N4CCCCCC4)ccc32)cc1 | inactive
O=C(c1ccccc1)c1ccccc1N1C(=O)C=CC1=O | inconclusive [inhibitor, single point]
CCOc1c(C)cnc2c1c(=O)n(Cc1ccc(Cl)cc1)c(=O)n2C | inactive
COc1cccc(/C=C/C(=O)OCC(=O)c2ccccc2)c1OC | inconclusive [inhibitor, single point]
Cc1sc2ncnc(N3CCC(C(=O)Nc4cc(C(F)(F)F)ccc4OCC(F)(F)F)CC3)c2c1C | inconclusive [inhibitor, partial curve, poor fit]
Cc1ccc(-c2nn(-c3cc(Cl)ccc3[N+](=O)[O-])c(=O)c3ccccc23)cc1C | inconclusive [inhibitor, partial curve, poor fit]
CCCCCNCc1cccn1C | inactive
CCOC(=O)c1c(C)[nH]c(CCC(=O)NCCCN2CCN(c3ccccc3F)CC2)c1C | inactive
C=CC[C@@H](CC(=O)N[C@@H](CO)Cc1ccccc1)C(=O)N[C@@H](COC(=O)[C@@H](CC=C)CC(=O)OC(C)(C)C)Cc1c[nH]c2ccccc12 | inconclusive [inhibitor, partial curve]
Cc1c2cnn(CC(=O)N3CCN(c4ccc(F)cc4)CC3)c(=O)c2c(C)n1Cc1ccccc1F | inactive
S=c1[nH]nc(-c2ccccn2)n1/N=C/c1ccc(Br)s1 | inactive
Cc1ccc(Nc2nc(CSc3nnnn3-c3ccccc3)cc(=O)[nH]2)cc1 | inconclusive [inhibitor, partial curve, poor fit]
CC(C)c1cc(Br)ccc1OCCN1C(=O)NC(C)(C)C1=O | inconclusive [inhibitor, partial curve, poor fit]
CC(C)OCCCN1C(=O)c2[nH]nc(-c3ccccc3O)c2C1c1cccc(OCc2ccccc2)c1 (centres undefined) | inconclusive [inhibitor, single point]
COc1cccc(NC(=O)CN2C(=O)C(c3ccc(C)cc3)=NC23CCCCCC3)c1 | inconclusive [inhibitor, full curve, poor fit]
